Measured values as given in the supplement of paper PMC10126150.
Values marked as one replicate rest on one cluster of the flow cell; about a third of the high ones do not repeat.

System: ATP
Assay: switch fluorescence ratio, 500 uM ATP over buffer (Cy3 cluster intensity, sum of 5 cycles each) (fold (ratio)); higher = stronger signal-on switching upon ATP binding; sequences stand for … in TCGTCGGCAGCGTCAGATGTGTATAAGAGACAGTTTTTTTTTTTTTTTTTTTTTTTTT…TC
Conditions: aptamer strand: ATP DNA aptamer (quencher-CACCTGGGGGAGTATTGCGGAGGAAGG + anchor), 100 nM annealed; ATP concentration: 500 uM; one replicate
How it was run: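 The quencher-labelled ATP aptamer, at 100 nM, was annealed to Cy3-labelled switching-strand clusters on a modified Illumina MiSeq flow-cell. The clusters were imaged in selection buffer, then after 15 min with 500 uM ATP at 22 °C, and this buffer/ATP cycle ran five times with NaOH stripping and re-annealing between runs. Per-cluster fluorescence ratios, summed target-cycle over summed buffer-cycle Cy3 intensity, were averaged per switch-domain sequence. Clusters outside 100-1000 RFU were excluded.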
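Also: ATP exposure 15 min at 22 °C before imaging.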

ACAACTCTCA
switch fluorescence ratio: 1.01

CCTTAGCGA
switch fluorescence ratio: 2.02

GGTTGCGTTA
switch fluorescence ratio: 1.02

GATCGGCATC
switch fluorescence ratio: 1.06

AGTCGCAGCA
switch fluorescence ratio: 1.06

TCGTTGTGCG
switch fluorescence ratio: 1.08

GTTAACCTGT
switch fluorescence ratio: 1.03

TGGTTACCGT
switch fluorescence ratio: 0.97

TCAGAGTGAG
switch fluorescence ratio: 0.952

ATCTTTAGAA
switch fluorescence ratio: 1.03

TAGTAGACGC
switch fluorescence ratio: 0.985

ACCTTGGATC
switch fluorescence ratio: 0.98

AATCAGGGAT
switch fluorescence ratio: 1.03

TGCTAATACG
switch fluorescence ratio: 1.45

TCAAGTCCGT
switch fluorescence ratio: 0.956

TTTGCATATG
switch fluorescence ratio: 0.97

GTATAAGAAT
switch fluorescence ratio: 0.991

AAATCGTT
switch fluorescence ratio: 1.03

TTCTGATGAA
switch fluorescence ratio: 0.979

ATTCAATGCT
switch fluorescence ratio: 1.03

GTTAAAATAA
switch fluorescence ratio: 0.954

CTCACGCGCT
switch fluorescence ratio: 1.2

TAAATGGGG
switch fluorescence ratio: 1

CTAAGGGTCC
switch fluorescence ratio: 0.934

ATCATAAACC
switch fluorescence ratio: 1.12

GGGCCATCCC
switch fluorescence ratio: 0.975

CTTTTGACGC
switch fluorescence ratio: 2.12

CGTTTCAGTT
switch fluorescence ratio: 0.97

GGGGTAGCCG
switch fluorescence ratio: 0.993

TGCAGAAGAG
switch fluorescence ratio: 0.995

TGATTCCGAA
switch fluorescence ratio: 0.962

ATGCGCCTAT
switch fluorescence ratio: 1.04

AATTGCTCTA
switch fluorescence ratio: 0.951

ACTGAATGAT
switch fluorescence ratio: 0.972

CCCAGTAAGG
switch fluorescence ratio: 1.01

CCTCATAG
switch fluorescence ratio: 1.4

TCCAACAGGC
switch fluorescence ratio: 1.17

TTTCCGGTC
switch fluorescence ratio: 1.11

TGCGTCTTGT
switch fluorescence ratio: 0.93

TGATCGGCTT
switch fluorescence ratio: 1

AGAAACCGGC
switch fluorescence ratio: 0.974

CGTGATGTTG
switch fluorescence ratio: 1

CGCTGCGGCG
switch fluorescence ratio: 1.06

CACCGGAATT
switch fluorescence ratio: 2.01

TAGATAACGC
switch fluorescence ratio: 1.02

ATGCTTAAGG
switch fluorescence ratio: 0.98

TAGAGGGACA
switch fluorescence ratio: 1.01

TGTCGCAATA
switch fluorescence ratio: 1.11

CTATCAGTTC
switch fluorescence ratio: 1

ATGTGCCAAA
switch fluorescence ratio: 1.01

TTGCTTGATT
switch fluorescence ratio: 1.01

ACTAATTGGT
switch fluorescence ratio: 1.04

GACAAGGGGC
switch fluorescence ratio: 1.04

TCGTTGTGTT
switch fluorescence ratio: 1.02

GAGTTATTAA
switch fluorescence ratio: 0.98

GCCGTCGC
switch fluorescence ratio: 1.04

ATGATTCTG
switch fluorescence ratio: 1.02

ACATAGGACC
switch fluorescence ratio: 1.04

GGCATCGCTG
switch fluorescence ratio: 0.927

TTAGACGTTT
switch fluorescence ratio: 1.05

CACCGTGAG
switch fluorescence ratio: 1.1

AAAACGTAGG
switch fluorescence ratio: 0.987

GAGACTGAAT
switch fluorescence ratio: 0.985

AAGCAGTTTT
switch fluorescence ratio: 0.98

AAAGCAACGG
switch fluorescence ratio: 1.14

ATGATAGAGC
switch fluorescence ratio: 0.937

CTAAACGTCC
switch fluorescence ratio: 1.21

AAGTAGGTTG
switch fluorescence ratio: 0.953

TAGCCACGA
switch fluorescence ratio: 1.05

GCACCCAGCT
switch fluorescence ratio: 1.03

CTAATATATT
switch fluorescence ratio: 1.02

GTCGTTAGCA
switch fluorescence ratio: 0.934

ACCTTTAAC
switch fluorescence ratio: 1.09

AAGTCGAGGG
switch fluorescence ratio: 1.03

GGCGCGGAAT
switch fluorescence ratio: 1.05

GGCTTCGAGC
switch fluorescence ratio: 0.995

TTCATAATGG
switch fluorescence ratio: 1.04

CCCATATCGG
switch fluorescence ratio: 1.02

ATTCAGATGG
switch fluorescence ratio: 0.941

CATCCATAGG
switch fluorescence ratio: 1.01

TCCGGTAGTA
switch fluorescence ratio: 1.04

TCTTGATATG
switch fluorescence ratio: 1.02

GGACCGCTA
switch fluorescence ratio: 1.13

GATCTGTGTA
switch fluorescence ratio: 0.981

TCTATAACC
switch fluorescence ratio: 1.07

GCTTAGTCAA
switch fluorescence ratio: 1

AGTGCCCAAG
switch fluorescence ratio: 1.04

GAGGTCATCG
switch fluorescence ratio: 1.01

CCTTCGGAAG
switch fluorescence ratio: 1.76

TTTCTCGCAT
switch fluorescence ratio: 4.08

TCCAAAAGCT
switch fluorescence ratio: 1.31

GGCTTTACGA
switch fluorescence ratio: 1.02

AGCACGGCAT
switch fluorescence ratio: 1.06

AGTCATAGAC
switch fluorescence ratio: 0.986

ATCGTAAAAC
switch fluorescence ratio: 1.21

CTCTCACAAT
switch fluorescence ratio: 2.37

GGAGTGTGTC
switch fluorescence ratio: 1.02

ATTCGTGTAC
switch fluorescence ratio: 1.27

TGTGAGCCAC
switch fluorescence ratio: 1.01

GTTCAGCAG
switch fluorescence ratio: 1.02

CCCCTTCAGG
switch fluorescence ratio: 1.41

GAGCTGGTGA
switch fluorescence ratio: 0.978

CTGACTACGA
switch fluorescence ratio: 1.24

TTTGAGTTA
switch fluorescence ratio: 1

GTTAAATGTT
switch fluorescence ratio: 0.987

GTGACCAGAT
switch fluorescence ratio: 1.02

CGTGATTAA
switch fluorescence ratio: 1.01

GGCGCATTGT
switch fluorescence ratio: 1.05

GCGTAGTGGG
switch fluorescence ratio: 1.03

TACGGGTAGA
switch fluorescence ratio: 1.01

AAGCTATTAC
switch fluorescence ratio: 3.82

ACAGAAAGCG
switch fluorescence ratio: 1.03

GTAGTTATCG
switch fluorescence ratio: 0.95

CGACTAAGGG
switch fluorescence ratio: 0.952

ACACGACC
switch fluorescence ratio: 1.36

ATGGCTGCGT
switch fluorescence ratio: 0.952

AAGTATAGT
switch fluorescence ratio: 1.01

GTTCCATCGG
switch fluorescence ratio: 1.02

TTGGGTGTT
switch fluorescence ratio: 1.02

TCGCCCTCAT
switch fluorescence ratio: 1.03

TCGGCGTCCG
switch fluorescence ratio: 1.01

TCACATTGCT
switch fluorescence ratio: 1.01

GGGTTTTCCC
switch fluorescence ratio: 1.08

GAGTGTCTCA
switch fluorescence ratio: 0.996

GACACCCGGA
switch fluorescence ratio: 1.03

GATTTCTGGT
switch fluorescence ratio: 0.983

TATCCTGGGC
switch fluorescence ratio: 1.05

CCGATTAGGG
switch fluorescence ratio: 0.989

AGGGAAAGTA
switch fluorescence ratio: 1.01

CATGTCGTCC
switch fluorescence ratio: 1.06

TCACTGATGC
switch fluorescence ratio: 0.987

CTAAGGCCGG
switch fluorescence ratio: 0.974

AATTTGCTGA
switch fluorescence ratio: 0.995

AATTAGTAGG
switch fluorescence ratio: 0.981

TTCGATCCTA
switch fluorescence ratio: 1.01

GGTCAGGACT
switch fluorescence ratio: 0.978

TACGCTCTTA
switch fluorescence ratio: 1.01

ACGCGAAAAT
switch fluorescence ratio: 1.17

GGGGGAGTT
switch fluorescence ratio: 0.973

CCGGTCACAT
switch fluorescence ratio: 1.15

TCGAAGAGTA
switch fluorescence ratio: 0.961

CGATAGTTCC
switch fluorescence ratio: 1.03

GTTGGTAGTC
switch fluorescence ratio: 0.976

TAGTAGTAAA
switch fluorescence ratio: 0.997

CAGTTCACTG
switch fluorescence ratio: 1.05

TTACTCTCCG
switch fluorescence ratio: 1.14

AACACCTCTA
switch fluorescence ratio: 1.04

TTTAAATGGA
switch fluorescence ratio: 0.989

CGACTCATGT
switch fluorescence ratio: 1.01

TAGCTTCACG
switch fluorescence ratio: 1.01

GTTGATATGT
switch fluorescence ratio: 1.02

TCCTGACTGA
switch fluorescence ratio: 1.06

AATCACAGAG
switch fluorescence ratio: 0.939

CGCTGAGCGG
switch fluorescence ratio: 1.03

TCCCTCTCGT
switch fluorescence ratio: 1.08

AGGGCGTATA
switch fluorescence ratio: 0.985

GAGGGATAC
switch fluorescence ratio: 1.35

GCCTCCCACT
switch fluorescence ratio: 1.64
